According to the supplement of paper PMC4967469:

Columns and labels:
FR-180204 = compound: Nc1[nH]nc2nnc(-c3c(-c4ccccc4)nn4ccccc34)cc12 [FR-180204]; assay: Viability of human cancer cell lines after 72 h of drug (GDSC screen); details: top dose 20 µM; top dose inferred
Procedure: (§1)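 Human cancer cell lines in 384-well plates, medium with 10% serum, drug for 72 h over a 256-fold dose range (nine 2-fold or five 4-fold steps up to the top dose). Adherent lines were fixed and stained with the nucleic acid dye Syto60, suspension lines read with resazurin; signal relative to control wells, capped at 0 and 100%. One two-parameter sigmoid per drug and line, fitted in a mixed model over all curves with the slope shared within a line.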

FK866 = compound: O=C(/C=C/c1cccnc1)NCCCCC1CCN(C(=O)c2ccccc2)CC1 [FK866]; assay: as above; details: top dose 1 µM; top dose inferred
Procedure: as §1

Row | Cell Line | AUC (FR-180204) | IC50 (FR-180204) [nM] | AUC (FK866) | IC50 (FK866) [nM]
1 | HCC1419 (breast, adherent) | 0.965 | > 20000 | 0.977 | > 1000
2 | HCC1428 (breast, adherent) | 0.984 | > 20000 | 0.965 | > 1000
3 | HCC1500 (breast, adherent) | 0.987 | > 20000 | 0.447 | 44.5
4 | HCC1569 (breast, adherent) | 0.962 | > 20000 | 0.551 | 90.4
5 | HCC1806 (breast, adherent) | 0.968 | > 20000 | 0.324 | 21.1
6 | HCC1937 (breast, adherent) | 0.978 | > 20000 | 0.948 | > 1000
7 | HCC1954 (breast, adherent) | 0.984 | > 20000 | 0.945 | > 1000
8 | HCC2157 (breast, suspension) | 0.987 | > 20000 | 0.297 | 16.3
9 | HCC2218 (breast, suspension) | 0.971 | > 20000 | 0.573 | 104
10 | HCC2998 (large intestine, adherent) | 0.988 | > 20000 | 0.364 | 26.6
11 | HCC-15 (lung squamous cell carcinoma, adherent) | 0.978 | > 20000 | 0.979 | > 1000
12 | HCC-44 (lung adenocarcinoma, adherent) | 0.985 | > 20000 | 0.376 | 28.7
13 | HCC-56 (large intestine, adherent) | 0.987 | > 20000 | 0.986 | > 1000
14 | HCC-78 (lung adenocarcinoma, adherent) | 0.98 | > 20000 | 0.667 | 199
15 | HCC-827 (lung adenocarcinoma, adherent) | 0.889 | > 20000 | 0.905 | > 1000
16 | HCE-4 (oesophagus, adherent) | 0.992 | > 20000 | 0.281 | 16.7
17 | HCT-15 (large intestine, adherent) | 0.971 | > 20000 | 0.724 | 283
18 | HCT-116 (large intestine, adherent) | 0.975 | > 20000 | 0.038 | < 3.91
19 | HD-MY-Z (Hodgkin lymphoma, adherent) | 0.965 | > 20000 | 0.093 | < 3.91
20 | HDLM-2 (Hodgkin lymphoma, suspension) | 0.989 | > 20000 | 0.077 | < 3.91
21 | HDQ-P1 (breast, adherent) | 0.955 | > 20000 | 0.935 | > 1000
22 | HEC-1 (endometrium, adherent) | 0.989 | > 20000 | 0.179 | 7.09
23 | HEL (acute myeloid leukaemia, semi-adherent) | 0.969 | > 20000 | 0.068 | < 3.91
24 | HGC-27 (stomach, adherent) | 0.989 | > 20000 | 0.017 | < 3.91
25 | HH (T-cell leukaemia, suspension) | 0.946 | > 20000 | 0.067 | < 3.91

Row | Cell Line | AUC (FR-180204) | IC50 (FR-180204) [nM] | AUC (FK866) | IC50 (FK866) [nM]
26 | HL-60 (acute myeloid leukaemia, suspension) | 0.956 | > 20000 | 0.187 | 8.28
27 | HLE (liver, adherent) | 0.98 | > 20000 | 0.108 | < 3.91
28 | HMV-II (melanoma, adherent) | 0.967 | > 20000 | 0.642 | 170
29 | HN (head and neck, adherent) | 0.989 | > 20000 | 0.194 | 8.3
30 | HO-1-N-1 (head and neck, adherent) | 0.978 | > 20000 | 0.406 | 35.3
31 | HO-1-u-1 (head and neck, adherent) | 0.973 | > 20000 | 0.71 | 237
32 | HOP-62 (lung adenocarcinoma, adherent) | 0.985 | > 20000 | 0.287 | 15.7
33 | HOP-92 (large cell lung carcinoma, adherent) | 0.973 | > 20000 | 0.784 | 496
34 | HOS (osteosarcoma, adherent) | 0.992 | > 20000 | 0.044 | < 3.91
35 | HPAC (pancreas, adherent) | 0.965 | > 20000 | 0.968 | > 1000
36 | HPAF-II (pancreas, adherent) | 0.927 | > 20000 | 0.784 | 571
37 | HSC-2 (head and neck, adherent) | 0.983 | > 20000 | 0.987 | > 1000
38 | HSC-3 (head and neck, adherent) | 0.99 | > 20000 | 0.197 | 9.41
39 | HSC-4 (head and neck, adherent) | 0.963 | > 20000 | 0.255 | 9.59
40 | HSC-39 (stomach, suspension) | 0.988 | > 20000 | 0.027 | < 3.91
41 | HT55 (large intestine, adherent) | 0.987 | > 20000 | 0.969 | > 1000
42 | HT (B-cell lymphoma, suspension) | 0.99 | > 20000 | 0.042 | < 3.91
43 | HT-3 (cervix, adherent) | 0.987 | > 20000 | 0.433 | 40.8
44 | HT-29 (large intestine, adherent) | 0.914 | > 20000 | 0.217 | 9.32
45 | HT-115 (large intestine, adherent) | 0.99 | > 20000 | 0.785 | 386
46 | HT-144 (melanoma, adherent) | 0.975 | > 20000 | 0.414 | 35.3
47 | HT-1080 (fibrosarcoma, adherent) | 0.989 | > 20000 | 0.053 | < 3.91
48 | HT-1197 (bladder, adherent) | 0.981 | > 20000 | 0.79 | 538
49 | HT-1376 (bladder, adherent) | 0.985 | > 20000 | 0.672 | 207

Lines with a small IC50 respond at low doses; a fit beyond the top or the lowest dose is shown as a bound at that dose. The AUC spans the tested range (256-fold, ending at the top dose) of the same fit: 1 means no effect, lower means more sensitive. The top dose, if marked as inferred, comes from the curve model; the source does not state it.
